{"source": "the RNAGym collection of RNA variant scans (doi:10.1093/nar/gkz1192)", "parents": {"B1": {"name": "CPEB3 Ribozyme (parent)", "chain": "UAACAGGGGGCCACAGCAGAAGCGUUCACGUCGCAGCCCCUGUCAGAUUCUGGUGAAUCUGCGAAUUCUGCUGUAUAUCUC"}}, "note": "Read counts are not given, so values of variants with three or more changes are uncertain."}
{"variants_of": "B1", "test": "self-cleavage, relative activity (ratio to wild type); higher = more cleavage; in vitro, sequencing", "summary_of_the_method": "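After error-prone PCR and barcoding, CPEB3 ribozyme mutant libraries were transcribed with T7 RNA polymerase at 37°C for 5 hours, then given 15 min with DNase I before an EDTA stop, and they cleaved during both steps. Reverse transcription with template switching preceded Illumina sequencing. Relative activity divides a variant's cleaved/total read fraction by the unmutated ribozyme's. At least 5 reads were required per variant, and three batches were averaged.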"}
{"variant": "UAACAGUGGGCCACAGCAGAAGCGUUCACGUCGCAGCCCCUGUCAGAUUCUGGUGAACCUGCGGAUUCUGCUGUAUAUCUC", "note": "[G7U U58C A64G]", "self-cleavage": 0.05}
{"variant": "UAACAGUGGGCCACAGCAGAAGCGUUCACGACGCGGCCCCUGUCAGAUUCUGGUGAACCUGCGAAUUCUGCUGUAUAUCUC", "note": "[G7U U31A A35G U58C]", "self-cleavage": 0.21}
{"variant": "UAACAGUGGGCCACAGCAGAAGCGUUGACGUCGCAGCCCCUGUCAGAUUCUGGCGAGUCUGCGAAUUCUGCUGUAUAUAUC", "note": "[G7U C27G U54C A57G C79A]", "self-cleavage": 0.2}
{"variant": "UAACAGUGGGCCACAGCAGAAGCGUUCACGUCGCAGCCCCAGUCGGAUUCUGGUGAAUCUGCGAAUUCUGCUGUAUAUCCC", "note": "[G7U U41A A45G U80C]", "self-cleavage": 0.08}
{"variant": "UAACAGUGGGCCACAGCAGAAGCGUUCACGUCGCAGCCCCUGUCAGAUUCUGGUGAGUCUGCGAAUUCUGCUGUAUAUCCC", "note": "[G7U A57G U80C]", "self-cleavage": 0.08}
{"variant": "UAACAGGAGGCCACGGCAGAAGCGUACACGUCGCAGCCCCUGCCAGAUUCUGGUGUAUCUGCGAAUUCUGCUGUAUAUCUC", "note": "[G8A A15G U26A U43C A56U]", "self-cleavage": 0.2}
{"variant": "UAACAGUGGGCCACAGCAGAAGCGUUCACGUCGCAGCACCUGUCAGAUUCUGGUGAAUCUGCGAAUUCUGCCGUAUAUCUC", "note": "[G7U C38A U72C]", "self-cleavage": 0.19}
{"variant": "UAACAGUGGGCCACAGCAGAAGCGUUCACGGCGCAGCCCCUGUCAGAUUCUGGUGUAUCUGCGAAUUCUGCUGUAUAACUC", "note": "[G7U U31G A56U U78A]", "self-cleavage": 0.21}
{"variant": "UAACAGUGGGCCACAGCAGAAGCGUUCGCGGCGCAGCCCCUGUCAGAUUCUGGUGAAUCUGCGAAUUCUGCUGUAUAUCUC", "note": "[G7U A28G U31G]", "self-cleavage": 0.15}
{"variant": "UAACAGGAGGCCGCAGCGGAAGCGUUCACGUGGCAGCCCCAGCCAGAGUCUGGUGAAUCUGCGAAUUCUGCUGUAUAUCUC", "note": "[G8A A13G A18G C32G U41A U43C U48G]", "self-cleavage": 0.04}
{"variant": "UAACAGUGGGCCACAGCAGAAGCGUUCACGUCGCAGCCCCAGUCAGAUACUGGUGAAUCUCCGAAUUCUGCUGUAUAUCUC", "note": "[G7U U41A U49A G61C]", "self-cleavage": 0.12}
{"variant": "UAACAGUGGGCCACAGCAGAAGCGUUCACGUCGCAGCCCCUGUCAGAUUCUGGUGAAUCUGCGGACUCUGCUGUAUAUCUC", "note": "[G7U A64G U66C]", "self-cleavage": 0.22}
{"variant": "UAACAGUGGGCCACAGCAGAAGCGUUCACGACGCAGCCCCUGUCAGAUUCCGGUGAAUCUGCGGAUUCUGCUGCAUAUCUC", "note": "[G7U U31A U51C A64G U74C]", "self-cleavage": 0.18}
{"variant": "UAACAGUGGGCCACAGCAGAAGCGUCCACGUCGCAGCCCCUGUCUGAUUCUGGUGAGUCUGCGAAUUCUGCUGUAUACCUC", "note": "[G7U U26C A45U A57G U78C]", "self-cleavage": 0.04}
{"variant": "UAACAGGAGGCCACGGCAGAUGCGGUCACGUUGCCGCCCCUGCCAGAUUCUGGUGAAUCUGCGAAUUCUGCUGUAUAUCUC", "note": "[G8A A15G A21U U25G C32U A35C U43C]", "self-cleavage": 0.04}
{"variant": "UAACAGGAGGCCACGGCGGAAGCGUUCACGUCUCAGCCCCUGUCAGAUUCUGGUGAAUCUGCGAAUUCUGCUGUAAAUCUC", "note": "[G8A A15G A18G G33U U76A]", "self-cleavage": 0.06}
{"variant": "UAACAGGAGGCCACGGCUGAAGCGUUCACGUCGCAGCCCCUGUCAGAUUCUGGUGCAUCUGCGAAUUCUGCUGUAUAUCUC", "note": "[G8A A15G A18U A56C]", "self-cleavage": 0.05}
{"variant": "UAACAGGAGGCCACUGCAGAAGCGUUCAUGUCGCAGCCCCUGUCAGACUCUGGUGAAUCUGCGAAUUCUGCUGUAUAUCUC", "note": "[G8A A15U C29U U48C]", "self-cleavage": 0.18}
{"variant": "UAACAGGAGGCCACGGCAGAAGCGUGCACGUCGCAGCCCCCGUCAGAUUCUGGUGAAUCUGCGAAUUCUGCUGUAAAUCUC", "note": "[G8A A15G U26G U41C U76A]", "self-cleavage": 0.34}
{"variant": "UAACAGGAGGCCUCAGCAGAAGCGUUCACGUCACAGCCCCUGUCGGACUCUGGUGUAUCUGCGAAUUCUGCUGUAUAUCUC", "note": "[G8A A13U G33A A45G U48C A56U]", "self-cleavage": 0.1}
{"variant": "UAACAGUGGGCCACAGCAGAAGCGAUCACGUCGCAGCCCCUGUCAGACUCUGGUGGAUCUGCGAAUCCUGCUGUAUAUCUC", "note": "[G7U U25A U48C A56G U67C]", "self-cleavage": 0.09}
{"variant": "UAACAGGAGGCCACGGCAGAAGCGUUCACGCCGCAGCCCCUGUCAGAUUCUGGUGAAUCUGCGCAUUCUGCUGUAUAUCUC", "note": "[G8A A15G U31C A64C]", "self-cleavage": 0.05}
{"variant": "UAACAGUGGGGCACAGCAGAAGCGUUCACGUCGCAGCCCCUGACAGAUUCUCGUGAAUCUGCGAAUUCUGCUGUAUGUCUC", "note": "[G7U C11G U43A G52C A77G]", "self-cleavage": 0.06}
{"variant": "UAACAGGAGGCCGCAGCAGAAGCGUCCACGUCGCAGCCCCUGUCAGAUUCUGGUGAAUCUGCGAAUUCUGCUGUAUAUCUC", "note": "[G8A A13G U26C]", "self-cleavage": 0.13}
{"variant": "UAACAGGAGGCCACCGCAGAAGCGUUCACGUCGCGGCCCCUGUCAGAUUCUGGUGAAUCUGCGCAUUCUGCUGUAUAUCUC", "note": "[G8A A15C A35G A64C]", "self-cleavage": 0.11}
{"variant": "UAACAGUGGGCCACAGCAGAAGUGUUCACGUCGCAGCCCCUGACAGAUUCUGGUGAAUCUGCGAAUUCUGCUGUAUAUCUC", "note": "[G7U C23U U43A]", "self-cleavage": 0.04}
{"variant": "UAACAGUGGGCCACAGCAGAAGCGUUCACGUCGCAGCCCCUGUCGGGUUCUGGUGAAUCUGCGAACUCUGCUGUAUAUCUC", "note": "[G7U A45G A47G U66C]", "self-cleavage": 0.07}
{"variant": "UAACAGGAGGCCGCAGCAGAAGCGUUCACGUCGCAGCCCCUGUCAGAUUCUGGUGAAUCUGCGAAUUCCGCUGUACAUCUC", "note": "[G8A A13G U69C U76C]", "self-cleavage": 0.11}
{"variant": "UAACAGUGGGCCACAGCAGAAGCGCUCACGUCGCAGCCCCUGUCAGAUUCUGGUGAACCUGCGAAUUCUGCCGCAUAUCUC", "note": "[G7U U25C U58C U72C U74C]", "self-cleavage": 0.13}
{"variant": "UAACAGUGGGCCACAGCAGAAGCGUUCUCGUCGCAGCCCCAGUCAGACUCUGGUGAAUCUGCGAAUCCUGCUGUAUAUCCC", "note": "[G7U A28U U41A U48C U67C U80C]", "self-cleavage": 0.1}
{"variant": "UAACAGGAGGCCGCAGCAGAAGCGUUCACGUCGUAGCCCCUGACAGAUUCUGAUGAAUCUGCGGAUUCUGCUGUAUAUCUC", "note": "[G8A A13G C34U U43A G53A A64G]", "self-cleavage": 0.05}
{"variant": "UAACAGUGGGCCACAACAGAAGCGUUCACGUCGCAGCCCCUGUCGGAUUCUGGUGAAUCUGCGAAUUCUGCUGUAUGUCUC", "note": "[G7U G16A A45G A77G]", "self-cleavage": 0.05}
{"variant": "UAACAGUGGGCCACAGCAGAAGCGUUCACGUCGCUGCCCCGGUCAGAUUCUGGUGAAUCUGCGAAUUCUGCUGUAUACCUC", "note": "[G7U A35U U41G U78C]", "self-cleavage": 0.33}
{"variant": "UAACAGGAGGCCACGGCAGAAGCGUUCACGUCGCAGCCCCUGUCAGACUCUGCUGAAUCUGCUAAUUCUGCUGUAUAUCUC", "note": "[G8A A15G U48C G53C G63U]", "self-cleavage": 0.14}
